# Source: patent US9777070B2, “Anti-PTK7 antibody-drug conjugates” (Pfizer Inc., priority 2014, dated 2017)
# B1: hu24-vc0101: hu24 conjugated through cysteines to vc0101 linker-payload; average DAR approximately 4 (conjugate)
# heavy: QVQLVQSGPEVKKPGASVKVSCKASGYTFTDYAVHWVRQAPGKRLEWIGVISTYNDYTYNNQDFKGRVTMTRDTSASTAYMELSRLRSEDTAVYYCARGNSYFYALDYWGQGTSVTVSS[letters of human IgG1 constant region omitted]
# light: EIVLTQSPATLSLSPGERATLSCRASESVDSYGKSFMHWYQQKPGQAPRLLIYRASNLESGIPARFSGSGSGTDFTLTISSLEPEDFAVYYCQQSNEDPWTFGGGTKLEIKRTVAAPSVFIFPPSDEQLKSGTASVVCLLNNFYPREAKVQWKVDNALQSGNSQESVTEQDSKDSTYSLSSTLTLSKADYEKHKVYACEVTHQGLSSPVTKSFNRGEC
# Assays:
# H446 cells = assay: In vitro cytotoxicity, MTS, 4 days; assay type: cell-based, human
# Experimental: (§1) The cytotoxicity of the antibody-drug conjugate hu24-vc0101 was evaluated on cell lines that express the target PTK7. The engineered HEK293T-PTK7 over-expressing cell line was plated into a clear flat-bottom tissue culture plate (BD Falcon) at 500 cells per 180 μL of cell culture media per well. Human cancer cell lines were also tested in this assay and plated at a density that was previously determined to be optimal for each cell line according to their rate of growth (H661 1500 cells/well and H446 9600 cells/well in 150 μl). The cells were incubated overnight at 37° C. in a 5% CO2 incubator. On the following day, the hu24-vc0101 ADC and the 8.84 Ab-vc0101 ADC (negative control) were added to the cells on a 10 point concentration curve in triplicate samples starting with 3 or 10 μg/mL with 1:3 dilutions in cell culture media. The plate was incubated in a 37° C., 5% CO2 incubator for 4 days. The MTS assay (Promega CellTiter 96 Aqueous Non-Radioactive Cell Proliferation Assay) was used according to the supplier's instructions. 30 μL (H446, H661) or 40 μL (HEK293T-PTK7) of the combined MTS reagent was added to each well, and the plate was incubated in a 37° C., 5% CO2 incubator for 2 hours. The OD was determined at 490 nm with a 96-well plate reader. The average reading from wells with media alone was subtracted from the readings of wells with cells to control for background OD.
# H661 cells = assay: In vitro cytotoxicity, MTS, 4 days; assay type: cell-based, human
# Experimental: as §1
# [1] = tested on: HEK293T-PTK7 over-expressing cell line; assay: In vitro cytotoxicity, MTS, 4 days; assay type: cell-based, human; conditions: HEK293-PTK7
# Experimental: as §1
# melanoma-23 (SK23) PDX = assay: In vivo efficacy, PDX tumor growth; design: species or system human tumor in NOD/SCID mice
# Excerpt: (§2) The effects of anti-PTK7 antibody-drug conjugates were further evaluated on the in vivo growth of human tumor patient-derived xenografts (PDX). Primary tumor resection samples were procured from clinical sites following Institutional Review Board for the Protection of Human Subjects approval and in accordance with HIPAA regulations. Tumor fragments were stored and shipped in Hypothermasol (Biolife Solutions) on ice and were embedded in Matrigel (BD) containing a proprietary mix of growth factors and implanted subcutaneously into the mammary fatpad of female NOD/SCID mice within 24 hours of resection. Mice were monitored for health status daily and for tumor growth initially by visual inspection twice per week. Once the tumors were palpable, measurements of tumor volume began to track tumor growth and estimate cell doubling time. Tumor volume was estimated using the equation V=(A*B^2)/2 where A is the long axis and B is the short axis. When tumors reached a volume of 500 mm^3 to 1,500 mm^3, they were harvested for study and for re-transplant as a patient-derived xenograft (PDX). Depending on the line, mechanical and/or chemical dissociation can be used to separate the individual cells for passage. Live cells were inoculated into naïve animals with 10,000 to 50,000 cells per animals
# (§3) For efficacy studies, tumors were harvested from passaging studies and cells were dissociated into single cell suspension. Preparations were counted for live cells using Trypan blue exclusion and 10,000 to 50,000 cells were inoculated per mouse in Matrigel. […] Tumor growth was initially followed by palpability with measurements beginning once tumor volumes reached about 30 mm^3. Studies were randomized based on tumor size once a cohort of tumor-bearing mice reached 140 mm^3 to 180 mm^3. Animals were dosed by intraperitoneal injection twice a week for two weeks (q4dx4). Study groups were followed until individual mice or entire group tumor measurements reached 1200 mm^3 when sacrifice was indicated in accordance with IACUC protocol. For selected dosing studies, pharmacokinetic submandibular bleeds were performed at 2 hours, 36 hours and 72 hours. A volume of 10 μL of blood was immediately pipetted into 90 μL of HBS-P (GE Healthcare). Samples were stored at −80° C. prior to analysis. For each tumor measurement the tumor volume±standard error of the mean (SEM) is provided. GT=Group Terminated due to large tumor size.
# [2] = tested on: small cell lung cancer-64 (LU64) PDX; assay: In vivo efficacy, PDX tumor growth; design: species or system human tumor in NOD/SCID mice
# Excerpt: as §2, §3
# [3] = tested on: small cell lung cancer-86 (LU86) PDX; assay: In vivo efficacy, PDX tumor growth; design: species or system human tumor in NOD/SCID mice
# Excerpt: as §2, §3
molecule,measurement,setting,value
B1,IC50 Values,H446 cells,7.6 ± 5.0 ng/mL
same,IC50 Values,H661 cells,27.5 ± 20.5 ng/mL
same,IC50 Values,[1],1.7 ng/mL
same,tumor volume ± SEM,"melanoma-23 (SK23) PDX; 2 mg/kg, Day 0",187 ± 11 mm^3
same,tumor volume ± SEM,"melanoma-23 (SK23) PDX; 2 mg/kg, Day 7",432 ± 28 mm^3
same,tumor volume ± SEM,"melanoma-23 (SK23) PDX; 2 mg/kg, Day 14",456 ± 36 mm^3
same,tumor volume ± SEM,"melanoma-23 (SK23) PDX; 2 mg/kg, Day 21",509 ± 51 mm^3
same,tumor volume ± SEM,"melanoma-23 (SK23) PDX; 2 mg/kg, Day 28",679 ± 65 mm^3
same,tumor volume ± SEM,"melanoma-23 (SK23) PDX; 2 mg/kg, Day 35",793 ± 65 mm^3
same,tumor volume ± SEM,"melanoma-23 (SK23) PDX; 2 mg/kg, Day 42",868 ± 63 mm^3
same,tumor volume ± SEM,"melanoma-23 (SK23) PDX; 4 mg/kg, Day 0",196 ± 17 mm^3
same,tumor volume ± SEM,"melanoma-23 (SK23) PDX; 4 mg/kg, Day 7",356 ± 45 mm^3
same,tumor volume ± SEM,"melanoma-23 (SK23) PDX; 4 mg/kg, Day 14",227 ± 45 mm^3
same,tumor volume ± SEM,"melanoma-23 (SK23) PDX; 4 mg/kg, Day 21",150 ± 33 mm^3
same,tumor volume ± SEM,"melanoma-23 (SK23) PDX; 4 mg/kg, Day 28",135 ± 41 mm^3
same,tumor volume ± SEM,"melanoma-23 (SK23) PDX; 4 mg/kg, Day 35",166 ± 58 mm^3
same,tumor volume ± SEM,"melanoma-23 (SK23) PDX; 4 mg/kg, Day 42",178 ± 62 mm^3
same,tumor volume ± SEM,"melanoma-23 (SK23) PDX; 4 mg/kg, Day 49",228 ± 81 mm^3
same,tumor volume ± SEM,"melanoma-23 (SK23) PDX; 4 mg/kg, Day 56",250 ± 93 mm^3
same,tumor volume ± SEM,"melanoma-23 (SK23) PDX; 4 mg/kg, Day 63",295 ± 103 mm^3
same,tumor volume ± SEM,"melanoma-23 (SK23) PDX; 4 mg/kg, Day 70",398 ± 130 mm^3
same,tumor volume ± SEM,"melanoma-23 (SK23) PDX; 4 mg/kg, Day 77",568 ± 181 mm^3
same,tumor volume ± SEM,"melanoma-23 (SK23) PDX; 4 mg/kg, Day 84",688 ± 167 mm^3
same,tumor volume ± SEM,"[2]; 3 mg/kg, Day 0",166 ± 15 mm^3
same,tumor volume ± SEM,"[2]; 3 mg/kg, Day 7",252 ± 11 mm^3
same,tumor volume ± SEM,"[2]; 3 mg/kg, Day 14",310 ± 38 mm^3
same,tumor volume ± SEM,"[2]; 3 mg/kg, Day 21",389 ± 35 mm^3
same,tumor volume ± SEM,"[2]; 3 mg/kg, Day 28",537 ± 67 mm^3
same,tumor volume ± SEM,"[2]; 3 mg/kg, Day 35",651 ± 70 mm^3
same,tumor volume ± SEM,"[2]; 3 mg/kg, Day 42",932 ± 128 mm^3
same,tumor volume ± SEM,"[2]; 10 mg/kg, Day 0, Table 27",178 ± 19 mm^3
same,tumor volume ± SEM,"[2]; 10 mg/kg, Day 7, Table 27",348 ± 32 mm^3
same,tumor volume ± SEM,"[2]; 10 mg/kg, Day 14, Table 27",391 ± 42 mm^3
same,tumor volume ± SEM,"[2]; 10 mg/kg, Day 21, Table 27",377 ± 66 mm^3
same,tumor volume ± SEM,"[2]; 10 mg/kg, Day 28, Table 27",500 ± 76 mm^3
same,tumor volume ± SEM,"[2]; 10 mg/kg, Day 35, Table 27",618 ± 113 mm^3
same,tumor volume ± SEM,"[2]; 10 mg/kg, Day 42, Table 27",773 ± 141 mm^3
same,tumor volume ± SEM,"[2]; 10 mg/kg, Day 49, Table 27",838 ± 171 mm^3
same,tumor volume ± SEM,"[2]; 10 mg/kg, Day 56, Table 27",1054 ± 185 mm^3
same,tumor volume ± SEM,"[2]; 10 mg/kg, Day 63, Table 27",1367 ± 290 mm^3
same,tumor volume ± SEM,"[3]; 0.3 mg/kg, Day 0, Table 30",145 ± 11 mm^3
same,tumor volume ± SEM,"[3]; 0.3 mg/kg, Day 7, Table 30",362 ± 39 mm^3
same,tumor volume ± SEM,"[3]; 0.3 mg/kg, Day 14, Table 30",758 ± 62 mm^3
same,tumor volume ± SEM,"[3]; 0.3 mg/kg, Day 21, Table 30",1441 ± 97 mm^3
same,tumor volume ± SEM,"[3]; 1 mg/kg, Day 0",143 ± 12 mm^3
same,tumor volume ± SEM,"[3]; 1 mg/kg, Day 7",282 ± 46 mm^3
same,tumor volume ± SEM,"[3]; 1 mg/kg, Day 14",363 ± 77 mm^3
same,tumor volume ± SEM,"[3]; 1 mg/kg, Day 21",420 ± 115 mm^3
same,tumor volume ± SEM,"[3]; 1 mg/kg, Day 28",621 ± 159 mm^3
same,tumor volume ± SEM,"[3]; 1 mg/kg, Day 35",784 ± 141 mm^3
same,tumor volume ± SEM,"[3]; 1 mg/kg, Day 42",915 ± 105 mm^3
same,tumor volume ± SEM,"[3]; 3 mg/kg, Day 0",141 ± 11 mm^3
same,tumor volume ± SEM,"[3]; 3 mg/kg, Day 7",194 ± 24 mm^3
same,tumor volume ± SEM,"[3]; 3 mg/kg, Day 14",56 ± 11 mm^3
same,tumor volume ± SEM,"[3]; 3 mg/kg, Day 21",5 ± 4 mm^3
same,tumor volume ± SEM,"[3]; 3 mg/kg, Day 28",0 ± 0 mm^3
same,tumor volume ± SEM,"[3]; 3 mg/kg, Day 35",0 ± 0 mm^3
same,tumor volume ± SEM,"[3]; 3 mg/kg, Day 42",0 ± 0 mm^3
same,tumor volume ± SEM,"[3]; 3 mg/kg, Day 49",0 ± 0 mm^3
same,tumor volume ± SEM,"[3]; 3 mg/kg, Day 56",0 ± 0 mm^3
same,tumor volume ± SEM,"[3]; 3 mg/kg, Day 63",17 ± 17 mm^3
same,tumor volume ± SEM,"[3]; 3 mg/kg, Day 70",73 ± 45 mm^3
same,tumor volume ± SEM,"[3]; 3 mg/kg, Day 77",121 ± 67 mm^3
same,tumor volume ± SEM,"[3]; 3 mg/kg, Day 84",204 ± 90 mm^3
same,tumor volume ± SEM,"[3]; 3 mg/kg, Day 91",477 ± 272 mm^3
same,tumor volume ± SEM,"[3]; 3 mg/kg, Day 98",570 ± 270 mm^3
same,tumor volume ± SEM,"[3]; 3 mg/kg, Day 105",689 ± 281 mm^3
